The supplement of paper PMC3334620
Over roughly 33,000 sequences, “E-score (-0.5 to 0.5)” has its median near -0.035; the highest 2% begin near 0.35. Some of the results follow.

molecular target: T1, Pdr3 (UniProt P33200); test: PBM E-score (8-mer binding enrichment) (E-score (-0.5 to 0.5)); higher = stronger / more preferred TF binding; most listed sequences are background and not binding sites; conditions: protein concentration: 200 nM; construct: GST-full length
T1 sequence: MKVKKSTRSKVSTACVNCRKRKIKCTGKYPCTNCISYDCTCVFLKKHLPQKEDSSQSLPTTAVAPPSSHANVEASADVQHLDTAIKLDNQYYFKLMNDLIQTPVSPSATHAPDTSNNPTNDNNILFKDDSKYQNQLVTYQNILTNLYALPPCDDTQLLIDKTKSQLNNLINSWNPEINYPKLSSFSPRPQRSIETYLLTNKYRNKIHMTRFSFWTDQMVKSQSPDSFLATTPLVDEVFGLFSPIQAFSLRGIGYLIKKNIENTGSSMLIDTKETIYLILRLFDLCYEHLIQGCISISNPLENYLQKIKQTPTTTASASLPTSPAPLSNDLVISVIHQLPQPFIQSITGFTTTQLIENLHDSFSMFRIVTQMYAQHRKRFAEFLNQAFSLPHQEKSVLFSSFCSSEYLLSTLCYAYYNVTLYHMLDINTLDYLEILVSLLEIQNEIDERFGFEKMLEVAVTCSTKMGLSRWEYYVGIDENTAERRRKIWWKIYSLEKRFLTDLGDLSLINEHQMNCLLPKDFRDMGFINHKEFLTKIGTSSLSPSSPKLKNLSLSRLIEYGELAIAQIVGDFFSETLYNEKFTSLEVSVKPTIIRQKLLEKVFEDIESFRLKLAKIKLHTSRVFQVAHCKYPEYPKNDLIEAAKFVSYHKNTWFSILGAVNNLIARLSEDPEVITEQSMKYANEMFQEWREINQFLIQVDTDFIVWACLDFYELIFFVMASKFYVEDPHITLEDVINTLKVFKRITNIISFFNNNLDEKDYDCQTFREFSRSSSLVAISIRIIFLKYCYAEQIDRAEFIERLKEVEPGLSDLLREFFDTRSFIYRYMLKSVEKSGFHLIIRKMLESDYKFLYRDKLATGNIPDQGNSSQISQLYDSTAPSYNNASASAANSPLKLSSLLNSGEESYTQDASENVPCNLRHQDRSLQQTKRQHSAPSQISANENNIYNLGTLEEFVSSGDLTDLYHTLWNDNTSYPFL
How it was run: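 Each ungapped eight-base word and its reverse complement, pooled, received an E-score from the Universal PBM Analysis Suite. Underlying scans, normalised with masliner, recorded fluorescent anti-GST bound to GST-tagged yeast transcription factors. These were applied at about 100-200 nM to universal all-10-mer Agilent arrays double-stranded by primer extension.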

Sequence | PBM E-score
GCAGGGCC | -0.0226
CGACTTTC | 0.118
GCACAGTA | -0.0122
CATGGGAC | -0.0439
CGCAAGAA | 0.152
CCGAGACG | 0.238
AACTGCCG | 0.183
GCAAGAAA | -0.0345
ATCGTATC | -0.0863
AATACCGG | 0.29
AGTCCTTG | -0.159
GATGGCAA | 0.152
GGACGGAC | 0.293
TAAAGCTA | -0.417
CGCCGCTA | 0.274
AGTGCCCA | -0.0112
CCTATAGC | -0.262
ACGTCATA | -0.0705
AACTGCCA | -0.121
AGCGCATA | -0.028
CGCTCAGA | -0.0536
CCTTCGGA | 0.332

Sequence | PBM E-score
AGCATACG | -0.0567
ATCCCACG | 0.0216
CTTAGGTC | -0.0368
CTCACTAA | -0.121
CTAATATC | 0.145
GCCAGATA | -0.0384
ACCATCAA | -0.216
CCGTCAGC | 0.207
CCCTCATC | -0.137
CATGCGAA | 0.0697
CTGTAAAG | -0.197
CAGTCCGA | 0.304
CCGTGGAG | 0.382
CCTGCCCA | -0.132
ATTGTGAG | 0.0298
AATAGACG | 0.12
CCTCGCAG | -0.00057
ACGCCAAT | -0.0351
GAAATATA | 0.137
CAAGAGAG | -0.0941
CGCCTGTC | -0.18
CAGTCAGG | -0.307

Sequence | PBM E-score
ATCGTCAG | -0.169
CTACTGCA | -0.278
ATCACTGA | -0.185
CAGGCCGG | 0.0992
ACGAAATA | 0.0568
GCCGTACC | 0.134
TAGATACA | -0.129
AAGGCGTC | -0.0192
AACCACAG | -0.207
GTCGAGGA | -0.184
ACCATGCC | 0.0793
AGCGATGC | -0.142
GCGTGGCC | -0.096
ATTGGTAA | -0.0591
ACAGATGA | -0.264
AACACCCT | -0.0521
ACGGGGAA | 0.204
AAACCAGA | -0.139
CTTCATCC | -0.00929
AGAATCAT | -0.239
CTCGAGCA | 0.0481
CGGCCTTA | 0.14

Sequence | PBM E-score
ACAAGTGC | -0.173
ATCTCTGA | -0.143
CCTAACCG | -0.0117
CAAAACGG | 0.184
GCTCTTCC | 0.171
AAACCGAC | 0.119
ACTTGAAG | -0.218
ATTCATCG | 0.0666
CGTGCCGC | 0.187
ACACTGAG | -0.0845
TCATAAAA | 0.0033
CCGCGGGC | 0.484
CTAAATGA | -0.0538
AAGCCCTC | -0.169
AAAGTGGT | -0.0405
ACACATAC | 0.00409
ATCAAGCC | -0.13
GGACTGAA | -0.108
CCAGTGTC | -0.0301
AGCGGTTC | -0.0732
